In article PMC2441632:
No constants are given. Whether binding was seen depends on the method and setting. In cells and extracts the contact can be indirect. Some binding calls cover weakened binding; strength is not graded here.

The chains behind the UniProt entries cited, without tags or fusion partners.
UniProt P08659: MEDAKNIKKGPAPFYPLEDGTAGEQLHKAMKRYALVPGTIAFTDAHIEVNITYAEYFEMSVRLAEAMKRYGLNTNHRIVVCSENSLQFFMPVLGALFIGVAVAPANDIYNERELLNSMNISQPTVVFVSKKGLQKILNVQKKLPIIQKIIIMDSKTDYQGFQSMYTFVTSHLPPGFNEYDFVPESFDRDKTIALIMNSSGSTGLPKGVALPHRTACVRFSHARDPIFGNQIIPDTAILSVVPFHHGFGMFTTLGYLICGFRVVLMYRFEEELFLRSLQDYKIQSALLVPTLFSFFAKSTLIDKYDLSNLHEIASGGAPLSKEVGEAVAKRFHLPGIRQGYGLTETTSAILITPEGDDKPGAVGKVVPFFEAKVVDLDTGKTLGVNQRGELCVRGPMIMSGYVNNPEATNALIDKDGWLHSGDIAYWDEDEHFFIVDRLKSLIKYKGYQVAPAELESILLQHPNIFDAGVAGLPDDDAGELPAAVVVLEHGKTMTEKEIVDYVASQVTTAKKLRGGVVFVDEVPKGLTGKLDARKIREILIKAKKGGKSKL

How the values were obtained:
[1] = target: T1, full length murine TAF3 (mTAF3), Sf9 extract (mouse) (UniProt Q5HZG4); assay: co-IP; in vitro translated 35S-labelled proteins mixed with Sf9 extract overexpressing mTAF3; immunoprecipitation with anti-TAF3 39TA2F5; washed 3 times with PBS and once with PBS with 200 mM KCl; fluorography
T1 sequence: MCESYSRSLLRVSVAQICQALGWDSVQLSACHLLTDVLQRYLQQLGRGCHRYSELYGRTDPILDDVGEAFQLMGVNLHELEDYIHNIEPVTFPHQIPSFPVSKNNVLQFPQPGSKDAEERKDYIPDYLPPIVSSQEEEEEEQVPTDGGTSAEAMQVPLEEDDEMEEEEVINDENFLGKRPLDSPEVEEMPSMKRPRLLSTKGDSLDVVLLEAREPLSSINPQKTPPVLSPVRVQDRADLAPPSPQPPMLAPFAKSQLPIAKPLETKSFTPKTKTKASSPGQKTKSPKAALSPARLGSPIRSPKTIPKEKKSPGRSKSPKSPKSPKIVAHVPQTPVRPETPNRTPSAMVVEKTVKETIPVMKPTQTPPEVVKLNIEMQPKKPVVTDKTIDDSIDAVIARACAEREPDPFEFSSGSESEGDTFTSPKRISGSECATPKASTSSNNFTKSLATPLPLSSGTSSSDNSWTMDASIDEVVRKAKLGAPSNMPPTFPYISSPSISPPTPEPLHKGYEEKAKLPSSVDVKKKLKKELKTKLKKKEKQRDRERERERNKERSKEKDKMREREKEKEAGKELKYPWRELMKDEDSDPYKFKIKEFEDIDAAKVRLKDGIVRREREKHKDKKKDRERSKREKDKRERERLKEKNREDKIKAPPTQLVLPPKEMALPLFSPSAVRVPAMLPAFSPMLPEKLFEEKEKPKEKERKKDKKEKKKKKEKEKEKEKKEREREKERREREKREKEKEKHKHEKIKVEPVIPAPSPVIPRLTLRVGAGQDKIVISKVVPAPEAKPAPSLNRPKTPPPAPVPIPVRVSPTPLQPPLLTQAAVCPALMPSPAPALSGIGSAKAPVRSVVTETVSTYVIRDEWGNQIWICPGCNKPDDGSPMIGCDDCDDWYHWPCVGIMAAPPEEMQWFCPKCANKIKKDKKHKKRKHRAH

[2] = target: T2, mTAF3 overexpressed in 293T cells (mouse) (UniProt Q5HZG4); assay: co-IP; 293T cells co-transfected with p53 and mTAF3 plasmids, lysed 48 h after transfection; immunoprecipitation with anti-TAF3 39TA1C7, Western blot with anti-p53
T2 sequence: T1 sequence

binding [1] | binding [2] | Substance
no binding | – | firefly luciferase, in vitro translated (from UniProt P08659 1-550) (enzyme)
binds | – | full length human p53, in vitro translated (from UniProt P04637 1-393)
– | binds | human p53 overexpressed in 293T cells (from UniProt P04637 1-393)
